Assay results as given in patent US5576355A, “Diamondoid derivatives for pharmaceutical use” (priority 1993, dated 1996).

Tested on: AZT resistant strain (AZTR) of HIV-1
Experiment: Anti-HIV assay (MTT), pre- or post-infection, AZT resistant strain
Set-up: key: ++++: significant and reproducible inhibition of cytopathic effect; +++: significant and reproducible inhibition of cytopathic effect; +: noticeable but minimal protection; ---: no protective effect was observed; --: no protective effect was observed; -: no protection was observed but some changes in the cell culture occurred
Procedure: The AZT resistant strain (AZTR) of HIV-1 (cat. no. 629) which was isolated from an AIDS patient and developed by Douglas Richman was also obtained from the AIDS repository. (Larder et al., Science, 1989, 243, 1731-1734)
MN was grown in H9 cells. […] J. Hyg., 1938, 27, 493-7.

O[C@@H]1[C@@H]2C[C@H]3C[C@@H](C2)C2(OCCO2)[C@@H]1C3 (relative stereo) [Compound 8, 4(e)-hydroxy-2-adamantanone ethylene glycol ketal]
AZTR Post-Infection: --
AZTR Pre-Infection: --

OC12CC3(O)CC(O)(C1)CC(O)(C2)C3 [Compound 1, 1,3,5,7-tetrahydroxyadamantane]
AZTR Post-Infection: --
AZTR Pre-Infection: --

CC12CC3(C)CC(O)(C1)CC(O)(C2)C3 [Compound 2, 1,3-dihydroxy-5,7-dimethyladamantane]
AZTR Post-Infection: --
AZTR Pre-Infection: --

C[N+](C)(C)CCC[N+](C)(C)C1C2CC3C4CC5CC3C1C(C5)C4C2 (centres unmarked) [Compound 3, N-3-diamantyl-N,N,N',N',N'-pentamethyl propane-1,3-bis ammonium diiodide]
AZTR Post-Infection: --
AZTR Pre-Infection: --

O=C(O)CNC1C2CC3CC(C2)CC1C3 (centres unmarked) [Compound 5, N-2-adamantyl glycine]
AZTR Post-Infection: --
AZTR Pre-Infection: --

O=C1C2CC3CC(C2)C(=O)C1C3 [Compound 7, 2,4-adamantanedione]
AZTR Post-Infection: --
